{"source": "the supplement of paper PMC12217912", "parents": {"B1": {"name": "TEV protease; numbered along this chain (parent)", "chain": "MGESLFKGPRDYNPISSSICHLTNESDGHTTSLYGIGFGPFIITNKHLFRRNNGTLVVQSLHGVFKVKDTTTLQQHLVDGRDMIIIRMPKDFPPFPQKLKFREPQREERICLVTTNFQTKSMSSMVSDTSCTFPSGDGIFWKHWIQTKDGQCGSPLVSTRDGFIVGIHSASNFTNTNNYFTSVPKNFMELLTNQEAQQWVSGWRLNADSVLWGGHKVFMVKPEEPFQPVKEATQL"}}, "variants_of": "B1", "test": "raw area under fraction-flipped curve 0-4 h after induction (AUC4h, not background-subtracted), DNA-recorder readout of cleavage of the substrate (dimensionless); higher = more cleavage of the substrate by the protease variant", "conditions": "temperature: 34 °C; time window: 0-4 h after rhamnose induction", "procedure": "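In vivo DNA recorder in E. coli TOP10(DE3) ΔrhaA at 34 °C. Each TEVp single-site mutant (parent TEVp 0) is paired with a single-site variant of the 7-mer TEVs (canonical ENLYFQ|S). The substrate sits between flexible linkers in a Bxb1-sfGFP-TEVs-SsrA fusion, so cleavage stabilises Bxb1 and speeds flipping of a recombination array, read by NGS. The value is the raw area under the fraction-flipped curve over 0-4 h after rhamnose induction (AUC4h), with ≥20 reads per time point. It is not background-subtracted; inactive controls average about 0.047.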", "note": "The other results are listed elsewhere or left out. Sequences were assembled here from the parent chain. Values near 0.05 are background.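 Further: Bxb1 expression induced with 0.2% (w/v) L-rhamnose at OD600 near 0.5, cultures sampled hourly, flipped fraction per protease–substrate barcode pair counted by paired-end Illumina sequencing.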", "data": [{"variant": "MGESLFKGPRDYNPISSSICHLTNESDGHTTSLYGIGFGPFIITNKHLFRRNNGTLVVQSLHGVFKVKDTTTLQQHLVDGRDMIIIRMPKDFPPFPQKLKFREPQREERICLVTTNFQTKSMSSMVSDTSCTFPSGDGIFWKHWIQTKDGQCGSPLVSTRDGFIVGIHGASNFTNTNNYFTSVPKNFMELLTNQEAQQWVSGWRLNADSVLWGGHKVFMVKPEEPFQPVKEATQL", "note": "[S169G]", "values": [{"measurement": "area with substrate ENAYFQS", "result": 0.0745}, {"measurement": "area with substrate ENDYFQS", "result": 0.058}, {"measurement": "area with substrate ENEYFQS", "result": 0.0322}, {"measurement": "area with substrate ENFYFQS", "result": 0.064}, {"measurement": "area with substrate ENHYFQS", "result": 0.0664}, {"measurement": "area with substrate ENKYFQS", "result": 0.0598}, {"measurement": "area with substrate ENMYFQS", "result": 0.0567}, {"measurement": "area with substrate ENQYFQS", "result": 0.053}, {"measurement": "area with substrate ENRYFQS", "result": 0.0511}, {"measurement": "area with substrate ENSYFQS", "result": 0.0478}, {"measurement": "area with substrate ENVYFQS", "result": 0.0588}, {"measurement": "area with substrate ENYYFQS", "result": 0.0592}]}, {"variant": "MGESLFKGPRDYNPISSSICHLTNESDGHTTSLYGIGFGPFIITNKHLFRRNNGTLVVQSLHGVFKVKDTTTLQQHLVDGRDMIIIRMPKDFPPFPQKLKFREPQREERICLVTTNFQTKSMSSMVSDTSCTFPSGDGIFWKHWIQTKDGQCGSPLVSTRDGFIVGIHQASNFTNTNNYFTSVPKNFMELLTNQEAQQWVSGWRLNADSVLWGGHKVFMVKPEEPFQPVKEATQL", "note": "[S169Q]", "values": [{"measurement": "area with substrate ENAYFQS", "result": 0.0514}, {"measurement": "area with substrate ENCYFQS", "result": 0.0524}, {"measurement": "area with substrate ENDYFQS", "result": 0.0606}, {"measurement": "area with substrate ENEYFQS", "result": 0.0562}, {"measurement": "area with substrate ENFYFQS", "result": 0.0569}, {"measurement": "area with substrate ENGYFQS", "result": 0.0555}, {"measurement": "area with substrate ENHYFQS", "result": 0.0593}, {"measurement": "area with substrate ENIYFQS", "result": 0.0723}, {"measurement": "area with substrate ENNYFQS", "result": 0.0702}, {"measurement": "area with substrate ENPYFQS", "result": 0.0705}, {"measurement": "area with substrate ENQYFQS", "result": 0.0596}, {"measurement": "area with substrate ENSYFQS", "result": 0.0629}, {"measurement": "area with substrate ENTYFQS", "result": 0.0567}, {"measurement": "area with substrate ENVYFQS", "result": 0.057}, {"measurement": "area with substrate ENWYFQS", "result": 0.0676}, {"measurement": "area with substrate ENYYFQS", "result": 0.0521}]}, {"variant": "MGESLFKGPRDYNPISSSICHLTNESDGHTTSLYGIGFGPFIITNKHLFRRNNGTLVVQSLHGVFKVKDTTTLQQHLVDGRDMIIIRMPKDFPPFPQKLKFREPQREERICLVTTNFQTKSMSSMVSDTSCTFPSGDGIFWKHWIQTKDGQCGSPLVSTRDGFIVGIHSADNFTNTNNYFTSVPKNFMELLTNQEAQQWVSGWRLNADSVLWGGHKVFMVKPEEPFQPVKEATQL", "note": "[S171D]", "values": [{"measurement": "area with substrate ENAYFQS", "result": 0.0524}, {"measurement": "area with substrate ENCYFQS", "result": 0.0649}, {"measurement": "area with substrate ENDYFQS", "result": 0.0635}, {"measurement": "area with substrate ENEYFQS", "result": 0.0609}, {"measurement": "area with substrate ENFYFQS", "result": 0.075}, {"measurement": "area with substrate ENGYFQS", "result": 0.0595}, {"measurement": "area with substrate ENHYFQS", "result": 0.0575}, {"measurement": "area with substrate ENKYFQS", "result": 0.0628}, {"measurement": "area with substrate ENMYFQS", "result": 0.0632}, {"measurement": "area with substrate ENNYFQS", "result": 0.0665}, {"measurement": "area with substrate ENPYFQS", "result": 0.0565}, {"measurement": "area with substrate ENQYFQS", "result": 0.0687}, {"measurement": "area with substrate ENRYFQS", "result": 0.0532}, {"measurement": "area with substrate ENSYFQS", "result": 0.0536}, {"measurement": "area with substrate ENTYFQS", "result": 0.0433}, {"measurement": "area with substrate ENVYFQS", "result": 0.0628}, {"measurement": "area with substrate ENYYFQS", "result": 0.0618}]}, {"variant": "MGESLFKGPRDYNPISSSICHLTNESDGHTTSLYGIGFGPFIITNKHLFRRNNGTLVVQSLHGVFKVKDTTTLQQHLVDGRDMIIIRMPKDFPPFPQKLKFREPQREERICLVTTNFQTKSMSSMVSDTSCTFPSGDGIFWKHWIQTKDGQCGSPLVSTRDGFIVGIHSAPNFTNTNNYFTSVPKNFMELLTNQEAQQWVSGWRLNADSVLWGGHKVFMVKPEEPFQPVKEATQL", "note": "[S171P]", "values": [{"measurement": "area with substrate ENAYFQS", "result": 0.0654}, {"measurement": "area with substrate ENCYFQS", "result": 0.0552}, {"measurement": "area with substrate ENDYFQS", "result": 0.0453}, {"measurement": "area with substrate ENEYFQS", "result": 0.0559}, {"measurement": "area with substrate ENFYFQS", "result": 0.0869}, {"measurement": "area with substrate ENGYFQS", "result": 0.0587}, {"measurement": "area with substrate ENIYFQS", "result": 0.0765}, {"measurement": "area with substrate ENKYFQS", "result": 0.0523}, {"measurement": "area with substrate ENNYFQS", "result": 0.066}, {"measurement": "area with substrate ENPYFQS", "result": 0.0528}, {"measurement": "area with substrate ENQYFQS", "result": 0.0647}, {"measurement": "area with substrate ENRYFQS", "result": 0.069}, {"measurement": "area with substrate ENSYFQS", "result": 0.0472}, {"measurement": "area with substrate ENTYFQS", "result": 0.0538}, {"measurement": "area with substrate ENVYFQS", "result": 0.0525}, {"measurement": "area with substrate ENWYFQS", "result": 0.0429}]}, {"variant": "MGESLFKGPRDYNPISSSICHLTNESDGHTTSLYGIGFGPFIITNKHLFRRNNGTLVVQSLHGVFKVKDTTTLQQHLVDGRDMIIIRMPKDFPPFPQKLKFREPQREERICLVTTNFQTKSMSSMVSDTSCTFPSGDGIFWKHWIQTKDGQCGSPLVSTRDGFIVGIHSATNFTNTNNYFTSVPKNFMELLTNQEAQQWVSGWRLNADSVLWGGHKVFMVKPEEPFQPVKEATQL", "note": "[S171T]", "values": [{"measurement": "area with substrate ENAYFQS", "result": 0.0411}, {"measurement": "area with substrate ENEYFQS", "result": 0.0477}, {"measurement": "area with substrate ENFYFQS", "result": 0.0614}, {"measurement": "area with substrate ENGYFQS", "result": 0.055}, {"measurement": "area with substrate ENKYFQS", "result": 0.0729}, {"measurement": "area with substrate ENRYFQS", "result": 0.0653}, {"measurement": "area with substrate ENVYFQS", "result": 0.0733}]}, {"variant": "MGESLFKGPRDYNPISSSICHLTNESDGHTTSLYGIGFGPFIITNKHLFRRNNGTLVVQSLHGVFKVKDTTTLQQHLVDGRDMIIIRMPKDFPPFPQKLKFREPQREERICLVTTNFQTKSMSSMVSDTSCTFPSGDGIFWKHWIQTKDGQCGSPLVSTRDGFIVGIHSASFFTNTNNYFTSVPKNFMELLTNQEAQQWVSGWRLNADSVLWGGHKVFMVKPEEPFQPVKEATQL", "note": "[N172F]", "values": [{"measurement": "area with substrate ENAYFQS", "result": 0.0518}, {"measurement": "area with substrate ENCYFQS", "result": 0.0547}, {"measurement": "area with substrate ENDYFQS", "result": 0.0626}, {"measurement": "area with substrate ENEYFQS", "result": 0.0581}, {"measurement": "area with substrate ENSYFQS", "result": 0.0792}, {"measurement": "area with substrate ENVYFQS", "result": 0.089}]}, {"variant": "MGESLFKGPRDYNPISSSICHLTNESDGHTTSLYGIGFGPFIITNKHLFRRNNGTLVVQSLHGVFKVKDTTTLQQHLVDGRDMIIIRMPKDFPPFPQKLKFREPQREERICLVTTNFQTKSMSSMVSDTSCTFPSGDGIFWKHWIQTKDGQCGSPLVSTRDGFIVGIHSASNGTNTNNYFTSVPKNFMELLTNQEAQQWVSGWRLNADSVLWGGHKVFMVKPEEPFQPVKEATQL", "note": "[F173G]", "values": [{"measurement": "area with substrate ENAYFQS", "result": 0.0573}, {"measurement": "area with substrate ENDYFQS", "result": 0.0641}, {"measurement": "area with substrate ENEYFQS", "result": 0.0694}, {"measurement": "area with substrate ENHYFQS", "result": 0.0491}, {"measurement": "area with substrate ENPYFQS", "result": 0.0594}, {"measurement": "area with substrate ENQYFQS", "result": 0.0564}, {"measurement": "area with substrate ENTYFQS", "result": 0.0652}, {"measurement": "area with substrate ENVYFQS", "result": 0.0568}, {"measurement": "area with substrate ENWYFQS", "result": 0.0582}]}, {"variant": "MGESLFKGPRDYNPISSSICHLTNESDGHTTSLYGIGFGPFIITNKHLFRRNNGTLVVQSLHGVFKVKDTTTLQQHLVDGRDMIIIRMPKDFPPFPQKLKFREPQREERICLVTTNFQTKSMSSMVSDTSCTFPSGDGIFWKHWIQTKDGQCGSPLVSTRDGFIVGIHSASNWTNTNNYFTSVPKNFMELLTNQEAQQWVSGWRLNADSVLWGGHKVFMVKPEEPFQPVKEATQL", "note": "[F173W]", "values": [{"measurement": "area with substrate ENAYFQS", "result": 0.0686}, {"measurement": "area with substrate ENCYFQS", "result": 0.0625}, {"measurement": "area with substrate ENDYFQS", "result": 0.0899}, {"measurement": "area with substrate ENEYFQS", "result": 0.0674}, {"measurement": "area with substrate ENFYFQS", "result": 0.0604}, {"measurement": "area with substrate ENGYFQS", "result": 0.0627}, {"measurement": "area with substrate ENHYFQS", "result": 0.052}, {"measurement": "area with substrate ENMYFQS", "result": 0.0619}, {"measurement": "area with substrate ENNYFQS", "result": 0.08}, {"measurement": "area with substrate ENQYFQS", "result": 0.0588}, {"measurement": "area with substrate ENRYFQS", "result": 0.0586}, {"measurement": "area with substrate ENSYFQS", "result": 0.0463}, {"measurement": "area with substrate ENVYFQS", "result": 0.0472}, {"measurement": "area with substrate ENWYFQS", "result": 0.0791}]}, {"variant": "MGESLFKGPRDYNPISSSICHLTNESDGHTTSLYGIGFGPFIITNKHLFRRNNGTLVVQSLHGVFKVKDTTTLQQHLVDGRDMIIIRMPKDFPPFPQKLKFREPQREERICLVTTNFQTKSMSSMVSDTSCTFPSGDGIFWKHWIQTKDGQCGSPLVSTRDGFIVGIHSASNFVNTNNYFTSVPKNFMELLTNQEAQQWVSGWRLNADSVLWGGHKVFMVKPEEPFQPVKEATQL", "note": "[T174V]", "values": [{"measurement": "area with substrate ENAYFQS", "result": 0.0612}, {"measurement": "area with substrate ENDYFQS", "result": 0.0623}, {"measurement": "area with substrate ENFYFQS", "result": 0.0499}, {"measurement": "area with substrate ENGYFQS", "result": 0.0487}, {"measurement": "area with substrate ENIYFQS", "result": 0.0843}, {"measurement": "area with substrate ENMYFQS", "result": 0.0672}, {"measurement": "area with substrate ENNYFQS", "result": 0.0506}, {"measurement": "area with substrate ENQYFQS", "result": 0.0548}, {"measurement": "area with substrate ENRYFQS", "result": 0.0604}, {"measurement": "area with substrate ENSYFQS", "result": 0.0613}, {"measurement": "area with substrate ENTYFQS", "result": 0.053}, {"measurement": "area with substrate ENWYFQS", "result": 0.0469}]}]}
